Out of some 310,000 compounds screened, about 2,200 (0.71%) showed an effect of 50% or more. Effects have a minus sign here. This is one part of the list.
The compounds below were run against human ether-à-go-go-related gene (hERG) potassium channel (human, UniProt Q12809) (assay: primary screen, population patch clamp on CHO cells stably expressing hERG).
human ether-à-go-go-related gene (hERG) potassium channel, sequence (Q12809 whole entry, looked up): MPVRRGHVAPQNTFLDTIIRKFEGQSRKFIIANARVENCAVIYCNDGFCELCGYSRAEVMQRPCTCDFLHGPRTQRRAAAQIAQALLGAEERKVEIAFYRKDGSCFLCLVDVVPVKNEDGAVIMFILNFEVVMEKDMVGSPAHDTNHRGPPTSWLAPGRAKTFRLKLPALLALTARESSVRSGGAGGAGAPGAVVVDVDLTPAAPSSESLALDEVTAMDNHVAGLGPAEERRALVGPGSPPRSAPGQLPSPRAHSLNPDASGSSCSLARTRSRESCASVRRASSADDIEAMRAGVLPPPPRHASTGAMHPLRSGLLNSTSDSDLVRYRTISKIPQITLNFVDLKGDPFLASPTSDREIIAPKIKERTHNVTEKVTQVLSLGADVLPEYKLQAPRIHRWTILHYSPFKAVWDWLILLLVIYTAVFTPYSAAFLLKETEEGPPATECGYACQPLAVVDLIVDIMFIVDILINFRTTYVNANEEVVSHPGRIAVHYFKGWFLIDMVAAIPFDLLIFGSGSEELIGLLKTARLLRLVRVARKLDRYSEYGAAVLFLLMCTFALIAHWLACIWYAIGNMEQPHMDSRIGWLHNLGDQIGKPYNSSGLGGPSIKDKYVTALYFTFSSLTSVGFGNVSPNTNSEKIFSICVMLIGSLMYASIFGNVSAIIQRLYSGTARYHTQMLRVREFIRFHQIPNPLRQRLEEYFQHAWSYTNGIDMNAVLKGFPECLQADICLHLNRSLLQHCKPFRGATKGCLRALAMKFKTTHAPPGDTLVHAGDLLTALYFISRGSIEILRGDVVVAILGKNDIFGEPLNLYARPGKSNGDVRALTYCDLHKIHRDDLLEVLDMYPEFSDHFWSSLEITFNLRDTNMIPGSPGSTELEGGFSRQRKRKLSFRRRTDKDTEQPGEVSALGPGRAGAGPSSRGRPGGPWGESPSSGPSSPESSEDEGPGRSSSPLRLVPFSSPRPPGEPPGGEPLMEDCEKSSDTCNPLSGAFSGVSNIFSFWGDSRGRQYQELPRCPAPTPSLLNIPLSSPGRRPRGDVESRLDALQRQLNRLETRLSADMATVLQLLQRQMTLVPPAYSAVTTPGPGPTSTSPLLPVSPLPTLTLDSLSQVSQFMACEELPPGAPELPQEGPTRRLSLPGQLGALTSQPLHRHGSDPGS

| Structure (SMILES) | hERG current change (%, negative = inhibition) at 1uM [%] |
| --- | --- |
| COc1ccc(-c2ccc(SC)nn2)cc1 | 7.64 |
| O=S(=O)(c1ccc(Nc2ccc3c(c2)OCO3)nc1)N1CCOCC1 | 2.17 |
| NC(=O)[C@@H]1CCCNc2c(I)cc([N+](=O)[O-])cc2C(=O)N[C@@H](CO)C(=O)NCC(=O)N1 | 0.355 |
| Nc1ccccc1O | 15.1 |
| CCN(CC(=O)Nc1c(F)cccc1F)C(=O)c1ccc(C(F)(F)F)cc1 | 7.87 |
| Cc1ccc(C(=O)NCCCCNC(=O)c2ccc(C)o2)o1 | -3.41 |
| S=c1[nH]nc(-c2ccco2)n1/N=C/c1ccc(Br)s1 | -4.5 |
| COc1ccc(N(CC(=O)NC2CC3CCC2C3)S(=O)(=O)c2ccccc2)cc1OC (stereo not drawn) | 14.1 |
| CCOC(=O)C1(Cc2ccccc2C)CCCN(C(=O)c2cc(C3CC3)[nH]n2)C1 (stereo not drawn) | 7.4 |
| CCN(CC(=O)Nc1ccc(OC)cc1)CC(=O)N1CC(=O)Nc2ccccc21 | 7.12 |
| Nc1nnc(Sc2ncccc2[N+](=O)[O-])s1 | 3.07 |
| CSCCC(NC(N)=O)C(=O)Nc1cccc(S(=O)(=O)N2CCOCC2)c1 (stereo not drawn) | 15.3 |
| CCOC(=O)C1CCCN(S(=O)(=O)c2ccc(S(=O)(=O)N3CCCC3)cc2)C1 (stereo not drawn) | 10.1 |
| COc1ccc(CNC(=O)c2cc3c(s2)CN(Cc2ccccc2)C3)cc1.Cl | 5.84 |
| CC(=O)N(Nc1ccccc1)c1ccccc1 | 15.3 |
| O=C(Nc1cccnc1)c1ccc(F)cc1 | 10.6 |
| CCOC(=O)N1CCN(C(=O)c2ccc(N(Cc3ccccc3)S(C)(=O)=O)cc2)CC1 | 7.98 |
| CCOC(=O)C1CCCN(C(=O)c2cc3nc(-c4ccc5c(c4)OCO5)cc(C(F)(F)F)n3n2)C1 (stereo not drawn) | 7.17 |
| Cc1nc(C)c(CC(=O)N2CCc3c([nH]c4ccccc34)C2c2ccccn2)s1 (stereo not drawn) | 12.3 |

| Structure (SMILES) | hERG current change (%, negative = inhibition) at 1uM [%] |
| --- | --- |
| Cc1cc(C2CC(=O)Nc3ccccc3S2)c(C)s1 (stereo not drawn) | 11.1 |
| CC1CCC(NC(=O)CN2C(=O)COc3ccc(S(=O)(=O)N4CCCC4)cc32)CC1 (stereo not drawn) | 4.56 |
| CC1CN(C(=O)c2cccc(COc3ccc(Br)cc3)c2)CC(C)O1 (stereo not drawn) | 12.9 |
| Cc1cc(C)nc(-n2ncc3c2CC(c2cccc(Cl)c2)CC3=O)n1 (stereo not drawn) | 7.76 |
| CCN(CC)S(=O)(=O)c1ccc(C)c(NC(=O)CN2CCN(C)CC2)c1.O=C(O)C(=O)O | 6 |
| Cc1cc(C(=O)NCC(c2ccco2)N(C)C)no1 (stereo not drawn) | 8.48 |
| Cc1cc(N2CCN(c3ccccc3Cl)CC2)n2cc(-c3ccccc3)nc2n1 | -2.03 |
| COc1ccc(CC(C)CC(=O)NCCc2ccc(OC)c(OC)c2)cc1 (stereo not drawn) | 10.7 |
| CCOc1ncccc1C(=O)N1CCN(C(c2ccccc2)c2ccccc2)CC1 | 12.8 |
| Cc1cc(/C=C2\C(=O)NC(=O)N(c3cccc(Br)c3)C2=O)c(C)n1C | 4.13 |
| N#CC(C(=O)c1ccccc1Cl)=C1SCCCS1 | -2.83 |
| O=C(CSc1ccccn1)Nc1ccccc1F | -0.346 |
| O=C(c1ccco1)N1CCN(C(=O)c2cc(=O)[nH]c3ccccc23)CC1 | 12.4 |
| CCOC(=O)C1(CCCc2ccccc2)CCN(C(=O)c2cncs2)CC1 | -18.1 |
| CCc1ccc(NC(=S)N(CCN2CCCCC2)Cc2ccco2)cc1 | -34.7 |
| CCCC(c1nnnn1Cc1ccc(OC)cc1)N1CCN(c2ccccc2OC)CC1 (stereo not drawn) | 7.87 |
| O=C1C(Nc2cccc(O)c2)=C(N2CCCCC2)C(=O)c2ccccc21 | 7.99 |
| COc1ccc2ccc(=O)oc2c1 | 1.86 |
| Cc1cc(C)cc(N(CCC(=O)Nc2nnc(C3CC3)s2)S(=O)(=O)c2ccc(Cl)cc2)c1 | 11.1 |

| Structure (SMILES) | hERG current change (%, negative = inhibition) at 1uM [%] |
| --- | --- |
| CCOC(=O)C(C)N1C(=O)S/C(=C/c2cc(C)n(-c3ccccn3)c2C)C1=O (stereo not drawn) | 14.8 |
| COC(=O)c1ccc(SCc2ccccc2)nc1 | 14.9 |
| COC(=O)c1ccc(C2N=C(c3cccs3)CC(c3ccccc3O)N2)cc1 (stereo not drawn) | 12.4 |
| COCCn1nnnc1C(CC(C)C)N1CCN(c2nc3ccccc3s2)CC1 (stereo not drawn) | 3.43 |
| Cc1cc(C)nc(NC(C)(C)C(=O)O)n1 | 10.5 |
| COc1ccc(C(=O)N/C(=C\c2ccccc2)C(=O)N2CCOCC2)cc1 | 9.79 |
| Cc1cc2nnc(SCC(=O)N(C)C3CCS(=O)(=O)C3)n2c2ccccc12 (stereo not drawn) | 10.4 |
| Cc1cccc(-c2nc(=S)c3c(n2Cc2ccco2)CCCC3)c1 | 14.3 |
| C=CCN(c1ccccc1OC)S(=O)(=O)c1cccc(C(=O)OCC(=O)c2c[nH]c3ccccc23)c1 | 8.74 |
| O=C(O)Cn1c2ccccc2c2n[nH]c(=S)nc21 | 14.2 |
| O=[N+]([O-])c1ccc(N2CCN(S(=O)(=O)c3ccccc3)CC2)c2cccnc12 | -75.6 |
| O=C1C2C3c4ccccc4C(Br)(c4ccccc43)C2C(=O)N1c1ccccc1O (stereo not drawn) | 14 |
| COC(CNC(=O)c1cccnc1)OC | 5.78 |
| O=C(Nc1cc(-c2ccccc2)nn1-c1ccccc1F)c1ccc([N+](=O)[O-])cc1 | 1.23 |
| O=C(Nc1ccc(/C=C/c2nc3ccccc3o2)cc1)c1c(F)cccc1F | 7 |
| CCN(CC)CCCNC(=O)CC1Sc2ccccc2NC1=O (stereo not drawn) | 3.56 |
| CCOc1ccc2[nH]cc(-c3csc(N)n3)c2c1 | 16.5 |
| O=C(NCc1cccs1)C1CCCN1C(=O)Nc1ccc(Cl)cc1 (stereo not drawn) | 22.6 |
| COc1cccc(NC(=O)CN2C(=O)NC3(CCCC3)C2=O)c1 | 12 |

Reference: PMC4336329 (PLoS ONE, 2015)
